Data taken from the supplement of paper PMC12217912.
This is one part of the list. Sequences were assembled here from the parent chain. Inactive controls read about 0.05.

B1: TEV protease; numbered along this chain (parent)
chain: MGESLFKGPRDYNPISSSICHLTNESDGHTTSLYGIGFGPFIITNKHLFRRNNGTLVVQSLHGVFKVKDTTTLQQHLVDGRDMIIIRMPKDFPPFPQKLKFREPQREERICLVTTNFQTKSMSSMVSDTSCTFPSGDGIFWKHWIQTKDGQCGSPLVSTRDGFIVGIHSASNFTNTNNYFTSVPKNFMELLTNQEAQQWVSGWRLNADSVLWGGHKVFMVKPEEPFQPVKEATQL

Variants of: B1
Assay: raw area under fraction-flipped curve 0-4 h after induction (AUC4h, not background-subtracted), DNA-recorder readout of cleavage of the substrate (dimensionless); higher = more cleavage of the substrate by the protease variant
Settings: temperature: 34 °C; time window: 0-4 h after rhamnose induction
Protocol: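 In vivo DNA recorder in E. coli TOP10(DE3) ΔrhaA at 34 °C. Each TEVp single-site mutant (parent TEVp 0) is paired with a single-site variant of the 7-mer TEVs (canonical ENLYFQ|S). The substrate sits between flexible linkers in a Bxb1-sfGFP-TEVs-SsrA fusion, so cleavage stabilises Bxb1 and speeds flipping of a recombination array, read by NGS. The value is the raw area under the fraction-flipped curve over 0-4 h after rhamnose induction (AUC4h), with ≥20 reads per time point. It is not background-subtracted; inactive controls average about 0.047.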
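Note: Bxb1 expression induced with 0.2% (w/v) L-rhamnose at OD600 near 0.5, cultures sampled hourly, flipped fraction per protease–substrate barcode pair counted by paired-end Illumina sequencing.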

Row | Variant | area with substrate EALYFQS | area with substrate EDLYFQS | area with substrate EGLYFQS | area with substrate EHLYFQS | area with substrate EILYFQS | area with substrate EKLYFQS | area with substrate ELLYFQS | area with substrate EMLYFQS | area with substrate EPLYFQS | area with substrate EQLYFQS | area with substrate ERLYFQS | area with substrate ESLYFQS | area with substrate ECLYFQS | area with substrate EELYFQS | area with substrate EWLYFQS | area with substrate ETLYFQS | area with substrate EVLYFQS | area with substrate EFLYFQS | area with substrate EYLYFQS
1 | L56S | 0.0571 | 0.0507 | 0.0464 | 0.0519 | 0.0276 | 0.0575 | 0.0503 | 0.0611 | 0.062 | 0.0492 | 0.047 | 0.0603 |  |  |  |  |  |  | 
2 | L56P |  | 0.0496 | 0.0275 |  | 0.0552 |  |  |  | 0.0365 | 0.0477 | 0.0402 |  | 0.0346 | 0.0497 | 0.0526 |  |  |  | 
3 | L56I |  | 0.135 |  |  | 0.0871 |  | 0.132 | 0.0733 | 0.192 | 0.0955 |  | 0.106 | 0.115 |  | 0.0919 | 0.133 | 0.0712 |  | 
4 | M88H |  |  | 0.0599 |  |  |  |  | 0.0481 | 0.0554 | 0.0662 |  |  | 0.0591 |  |  |  |  | 0.0392 | 
5 | M88Q |  | 0.142 | 0.0867 |  | 0.122 | 0.107 |  |  |  | 0.0926 |  | 0.109 | 0.156 |  |  | 0.151 | 0.138 |  | 0.0722
6 | M88C |  |  | 0.12 |  |  |  |  | 0.0964 | 0.124 |  |  | 0.0983 | 0.101 |  | 0.0802 |  |  |  | 0.0914
7 | L112W |  | 0.1 | 0.0588 |  | 0.057 | 0.0655 | 0.0755 | 0.077 |  | 0.0846 |  | 0.0738 | 0.0819 | 0.0769 | 0.0635 |  | 0.087 |  | 
8 | C152W |  |  |  | 0.0543 | 0.0654 | 0.0688 | 0.0431 | 0.0631 | 0.0484 | 0.0673 | 0.0608 | 0.0547 | 0.0575 | 0.0996 |  | 0.0535 | 0.0639 |  | 0.0554
9 | C152E |  |  |  |  | 0.0585 | 0.0576 | 0.0582 | 0.0614 | 0.0645 |  | 0.0692 | 0.0668 | 0.0671 | 0.0583 | 0.0607 |  | 0.0851 | 0.0521 | 0.0495
10 | C152F |  | 0.087 |  | 0.0633 | 0.0695 | 0.0492 | 0.057 | 0.0513 |  | 0.0504 | 0.0696 | 0.062 | 0.055 | 0.0567 | 0.0588 | 0.0487 | 0.0706 | 0.0631 | 0.0388
11 | C152I |  | 0.062 | 0.0541 | 0.0472 | 0.0481 | 0.0527 | 0.0465 | 0.0795 | 0.0484 | 0.0836 | 0.0516 | 0.0609 | 0.0532 | 0.0649 | 0.0559 |  | 0.041 | 0.0766 | 0.0485
12 | C152M |  |  |  |  | 0.0632 |  |  |  |  |  |  |  | 0.06 |  | 0.075 | 0.061 |  |  | 
13 | D208S |  |  |  | 0.106 |  |  | 0.0539 |  |  |  |  |  | 0.0754 |  | 0.0745 | 0.11 |  |  | 
14 | S16L | 0.133 | 0.16 | 0.0731 | 0.116 | 0.0896 | 0.125 |  | 0.112 |  | 0.0954 | 0.134 | 0.106 | 0.0835 |  | 0.0636 | 0.118 | 0.0095 |  | 
15 | L48G |  | 0.078 | 0.0765 | 0.0715 | 0.051 | 0.0694 | 0.0657 |  | 0.0741 | 0.0717 | 0.0875 | 0.0634 | 0.0753 |  | 0.0699 |  | 0.0693 |  | 0.0662
16 | L48W |  |  | 0.111 | 0.0438 | 0.0722 | 0.0576 |  |  | 0.0619 | 0.0525 | 0.0614 | 0.0621 | 0.0629 | 0.0751 | 0.0594 | 0.0624 | 0.069 | 0.0592 | 0.0596
17 | L48K |  |  | 0.0541 | 0.0781 | 0.0789 | 0.0669 |  |  | 0.045 |  |  | 0.0616 | 0.0559 | 0.0639 | 0.0511 |  | 0.0557 | 0.0665 | 
18 | L48R |  | 0.0572 | 0.0657 | 0.0671 | 0.0646 | 0.0702 | 0.0842 |  | 0.0632 | 0.052 |  | 0.0541 | 0.0531 | 0.0419 | 0.0524 | 0.0779 | 0.0511 | 0.0447 | 
19 | V64L |  |  |  |  |  | 0.113 |  | 0.123 |  |  | 0.109 | 0.088 | 0.125 |  | 0.0979 |  | 0.113 |  | 
20 | V64P |  |  |  | 0.0766 |  | 0.105 |  | 0.127 |  |  | 0.061 | 0.0699 | 0.0877 |  | 0.0747 |  | 0.0373 | 0.108 | 0.138
21 | W144N |  |  | 0.0782 |  |  | 0.07 | 0.0899 |  |  | 0.092 | 0.0875 | 0.0979 | 0.0769 | 0.0831 | 0.0707 | 0.0732 | 0.0826 | 0.0799 | 
22 | P104F |  |  |  |  | 0.0499 |  |  | 0.043 |  | 0.0602 |  |  | 0.0555 | 0.0342 |  |  |  |  | 
23 | P104I |  | 0.0822 | 0.132 | 0.068 | 0.0625 | 0.058 | 0.0806 | 0.0778 | 0.0684 | 0.0601 | 0.0727 | 0.0663 | 0.0616 | 0.0637 | 0.0601 | 0.108 | 0.0505 | 0.068 | 
24 | S32W |  |  |  | 0.112 | 0.0981 | 0.125 | 0.0975 |  |  | 0.13 | 0.115 | 0.117 | 0.0902 | 0.131 |  |  | 0.109 |  | 
25 | S32Y |  | 0.132 | 0.0956 | 0.102 | 0.0833 | 0.0917 | 0.0958 | 0.102 | 0.122 | 0.0858 | 0.0671 | 0.0978 | 0.107 | 0.0832 | 0.0871 | 0.12 | 0.0883 |  | 0.114
26 | S32D |  | 0.0932 | 0.0867 | 0.0873 | 0.0904 | 0.0777 | 0.0378 | 0.0938 | 0.0914 | 0.0927 | 0.0997 | 0.0923 | 0.0954 | 0.103 | 0.0807 |  | 0.0943 |  | 
27 | S32I |  | 0.141 | 0.0514 | 0.13 |  | 0.121 | 0.0886 | 0.103 | 0.11 | 0.105 | 0.106 | 0.115 | 0.0962 | 0.16 | 0.0987 |  |  |  | 
28 | D128W |  | 0.188 |  | 0.217 | 0.157 | 0.22 |  |  | 0.218 | 0.208 |  | 0.197 | 0.177 |  |  |  | 0.136 |  | 
29 | D128F |  | 0.157 |  | 0.137 |  | 0.179 |  |  |  | 0.196 | 0.181 | 0.183 | 0.15 |  | 0.136 |  | 0.127 |  | 
30 | D128M |  | 0.15 | 0.123 | 0.174 | 0.148 | 0.181 |  | 0.158 | 0.166 | 0.178 |  | 0.159 | 0.18 | 0.17 | 0.152 |  |  | 0.182 | 0.19
